Reference: PMC4336329 (PLoS ONE, 2015)
Hit rate of the full screen: of about 310,000 compounds, about 14,000 (4.5%) showed an effect of 50% or more. The effect is printed as a negative number. Some of the results follow.

biological target: human ether-à-go-go-related gene (hERG) potassium channel (human, UniProt Q12809); assay: primary screen, population patch clamp on CHO cells stably expressing hERG
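Note: peak tail current of the secondary pulse compared with the same well before compound.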

human ether-à-go-go-related gene (hERG) potassium channel, sequence (Q12809 whole entry, looked up): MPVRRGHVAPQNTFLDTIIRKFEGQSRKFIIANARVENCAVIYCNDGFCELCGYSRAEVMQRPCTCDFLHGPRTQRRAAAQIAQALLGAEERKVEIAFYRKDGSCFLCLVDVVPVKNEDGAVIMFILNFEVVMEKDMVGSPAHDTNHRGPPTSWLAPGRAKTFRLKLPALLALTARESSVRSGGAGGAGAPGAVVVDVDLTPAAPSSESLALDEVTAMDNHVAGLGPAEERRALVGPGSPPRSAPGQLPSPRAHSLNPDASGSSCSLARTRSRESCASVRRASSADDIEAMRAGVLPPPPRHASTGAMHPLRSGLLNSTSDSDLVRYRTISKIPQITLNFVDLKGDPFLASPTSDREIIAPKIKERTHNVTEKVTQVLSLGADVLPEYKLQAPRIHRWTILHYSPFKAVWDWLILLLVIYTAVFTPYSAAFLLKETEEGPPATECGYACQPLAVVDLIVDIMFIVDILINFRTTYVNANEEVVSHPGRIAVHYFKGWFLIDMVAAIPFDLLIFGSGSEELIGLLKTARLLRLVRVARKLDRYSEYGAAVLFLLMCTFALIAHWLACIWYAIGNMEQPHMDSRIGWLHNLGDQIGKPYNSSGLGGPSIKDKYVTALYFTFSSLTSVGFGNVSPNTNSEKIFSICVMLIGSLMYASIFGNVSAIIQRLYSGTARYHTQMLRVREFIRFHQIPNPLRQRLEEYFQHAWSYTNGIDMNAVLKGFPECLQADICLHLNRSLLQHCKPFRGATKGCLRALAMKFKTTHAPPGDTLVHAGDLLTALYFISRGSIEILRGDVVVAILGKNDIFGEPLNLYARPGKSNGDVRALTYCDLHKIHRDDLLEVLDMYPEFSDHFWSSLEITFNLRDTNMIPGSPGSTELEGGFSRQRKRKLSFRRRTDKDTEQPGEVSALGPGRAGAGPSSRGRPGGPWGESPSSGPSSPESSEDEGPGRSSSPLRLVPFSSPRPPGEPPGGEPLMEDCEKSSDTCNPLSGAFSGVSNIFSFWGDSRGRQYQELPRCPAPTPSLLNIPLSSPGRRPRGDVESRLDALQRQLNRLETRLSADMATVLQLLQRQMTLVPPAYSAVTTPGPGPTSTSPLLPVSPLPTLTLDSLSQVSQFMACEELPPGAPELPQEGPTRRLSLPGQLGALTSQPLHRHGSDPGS

Point of comparison: COc1ccc(NS(=O)(=O)c2ccc(OC)c(NC(=O)CNC(=O)c3ccc(OC)cc3)c2)cc1, “hERG current change (%, negative = inhibition) at 10uM” value -2.19%. Against it:
- COc1ccc(S(=O)(=O)NCCCN2CCCC2=O)c(OC)c1 — higher, 10.5%
- COC(=O)C1(c2ccccc2)NC(c2cccs2)C2C(=O)N(C)C(=O)C21 (stereo not drawn) — higher, -1.15%
- Cc1nn(Cc2c(Cl)cccc2Cl)c(Cl)c1C(=O)O — higher, 14.4%
- CN(C)c1ccc(C(CNS(=O)(=O)c2ccc([N+](=O)[O-])cc2)N2CCOCC2)cc1 (stereo not drawn) — lower, -25.9%
- C[n+]1ccn(CC(=O)c2cc(C(C)(C)C)c(O)c(C(C)(C)C)c2)c1.[Br-] — higher, 18.2%
- O=[N+]([O-])c1cc(/C=N/Nc2nc(N3CCOCC3)nc(N3CCOCC3)n2)ccc1Cl — higher, 16.1%
- O=C(N/N=C/c1cccnc1)c1ccc(CN2c3cccc4cccc(c34)S2(=O)=O)cc1 — higher, 5.22%
- Cc1ccccc1Nc1ncnc2c1cnn2C — higher, 4.92%
- O=C(Nc1ccc(S(=O)(=O)NC2=NCCCCC2)cc1)C1COc2ccccc2O1 (stereo not drawn) — lower, -6.86%
- CCN(CC)c1nc2n(c(=O)n1)CCN2CC — higher, -1.83%
- O=C(Nc1ccc(S(=O)(=O)Nc2ncccn2)cc1)c1ccc(Br)s1 — higher, 2.29%
- COc1ccc(-c2cc(C(=O)Nc3cc(Br)ccc3O)no2)cc1 — higher, 12.6%
- COc1cccc(-c2ccc(NC(=O)C3CCCN(Cc4ccc(CO)o4)C3)cc2)c1 (stereo not drawn) — higher, 2.83%
- Cc1cccc(CC(=O)NC2CCS(=O)(=O)C2)c1 (stereo not drawn) — higher, 9.85%
- Cc1ccc(NS(=O)(=O)c2cc(-c3cc(C)no3)ccc2C(C)C)nc1 — lower, -49%
- Cc1ccc(NC(=O)CN(C)C(=O)COC(=O)CCS(=O)(=O)c2ccc(C)cc2)cc1 — lower, -25.3%
- O=C(Cn1c(-c2cncs2)nc2ccccc21)NCCc1ccccc1 — higher, 7.71%
- COc1ccc2c(c1)c1ncn(CC3CCCO3)c(=O)c1n2C (stereo not drawn) — higher, -0.385%
- CC(=O)c1ccc(-n2nnnc2SCC(=O)N2CCN(C(=O)c3ccco3)CC2)cc1 — lower, -42.1%
- CC1(C)OC(=O)N(CCC(=O)Nc2cccc(F)c2)C1(C)O (stereo not drawn) — higher, 7.85%
- O=C(CNC(=O)OCc1ccccc1)NC1CCCCCCC1 — lower, -2.67%
- COCC1CCCN(C(=O)c2ccc(OC3CCN(Cc4ccccn4)CC3)cc2)C1 (stereo not drawn) — higher, 5.48%
- CC(=O)Nc1cccc(Nc2nc(-c3ccccc3)nc3ccccc23)c1 — higher, 28.2%
- CCCn1cc(C(CC(=O)O)C(=O)O)c2ccccc21 (stereo not drawn) — lower, -7.14%
- O=C(NCCCN1CCOCC1)c1ccc(NS(=O)(=O)c2cccc([N+](=O)[O-])c2)cc1 — lower, -24.6%
- Br.Cc1ccccc1Cn1c(=N)n(CC(=O)c2ccc([N+](=O)[O-])cc2)c2ccccc21 — lower, -32.6%
- COc1cc(NC(=O)CSc2nc(=O)n(CCN3CCOCC3)c3c2CCCC3)cc(OC)c1 — lower, -23.3%
- COc1cc(NC(=O)C(C)N2CCN(C(=O)C3CC3)CC2)cc(OC)c1 (stereo not drawn) — lower, -16.1%
- CN1CCC(OC(=O)c2ccc(Br)cc2)CC1.Cl — lower, -41.9%
- Cc1cc(-c2nnc(SCC(=O)Nc3ccccn3)o2)no1 — higher, 11.3%
- CCOC(=O)C1=C(SCC)c2cc3c(n2C1=O)CCCC3 — lower, -7.28%
- O=C(/C=C/c1ccccc1)NNc1ccc(Cl)cc1 — higher, -0.505%
- COc1ccc(NC(=O)N(CCc2ccccc2)Cc2cc3c(C)cc(C)cc3[nH]c2=O)cc1 — higher, 14%
- O=C(Nc1ccc(-n2ccc(C(F)(F)F)n2)cc1)c1cccs1 — higher, 13.4%
- Cc1ccc(-c2noc(CCC(=O)NCC3CCN(Cc4cccc(C)c4)CC3)n2)cc1 — lower, -63.8%
- Cc1sc(NC(=O)c2ccc(=O)n(C)n2)nc1-c1ccccc1 — lower, -5.43%
- COc1cc(/C=N/NC(=O)c2ccc(NC(=O)C3CCCCC3)cc2)ccc1O — higher, 28.6%
- CC1CCCN(S(=O)(=O)c2ccc(NC(=O)C3CC(=O)N(C(C)(C)C)C3)cc2)C1 (stereo not drawn) — higher, -1.85%
- CCC(SC1=NCCS1)C(=O)Nc1nnc(-c2ccccc2OC)s1 (stereo not drawn) — higher, 4.08%
- CCOc1ccccc1C1C(C#N)=C(N)SC(N)=C1C#N — higher, 13.5%
- COc1cc(NC(=O)COC(=O)CC(C)(C)C)c(C)cc1[N+](=O)[O-] — lower, -28.4%
- COc1ccc(N2C3=[N+](CCCC3)CC2(C)O)cc1.[Br-] (stereo not drawn) — lower, -3.94%
- CCCCn1c(N)c(N(CCOC)C(=O)c2cccc(-n3cnnn3)c2)c(=O)[nH]c1=O — lower, -4.49%
- Cc1cccc(N2CC(C(=O)Nc3nnc(SCCN4CCOCC4)s3)CC2=O)c1 (stereo not drawn) — higher, 0.559%
- CC(=O)Nc1ccc2c(c1)nc(CCNC(=O)c1ccco1)n2C — higher, 14%
- COc1cc2ccccc2cc1C(=O)N(CCN(C)C)c1nc2c(F)cc(F)cc2s1.Cl — lower, -10.1%
- CCOC(=O)c1[nH]cnc1C(=O)Nc1cccc(Cl)c1 — higher, 15.9%
- CCN(CC)S(=O)(=O)c1cc(NC(=O)CN2CCN(c3ccccn3)CC2)ccc1C — lower, -24.9%
- Cc1cc(SCc2ccc(Cl)cc2)nc(=O)[nH]1 — higher, 10.7%
- Cc1c(CCOC(=O)c2cc([N+](=O)[O-])cc([N+](=O)[O-])c2)sc[n+]1CC(=O)c1ccccc1.[Cl-] — higher, 5.96%
- Cc1ccc(NC2c3ncccc3C(=O)N2Cc2ccc(F)cc2)cc1 (stereo not drawn) — lower, -30.9%
- COc1cc(OC)cc(C(=O)N2CCN(C(=O)c3ccc(-c4ccccc4)cc3)CC2)c1 — lower, -43.1%
- COc1ccc(-c2cn(CCc3c[nH]c4ccccc34)nn2)cc1 — higher, 1.23%
